Key:
Assay in all cases: cell-based or functional assay
[1] = target: hemagglutinin (HA) of influenza B/Harbin/7/94 (Yamagata) (influenza B virus)
[2] = target: hemagglutinin (HA) of influenza A/New Caledonia/20/99 (H1N1) (influenza A virus)
[3] = target: hemagglutinin (HA) of influenza A/Wisconsin/67/05 (H3N2) (influenza A virus)
[4] = target: hemagglutinin (HA) of influenza B/Florida/04/06 (Yamagata) (influenza B virus)
[5] = target: hemagglutinin (HA) of influenza A/Vietnam/1194/04 (H5N1) (influenza A virus)
[6] = target: hemagglutinin (HA) of influenza B/Malaysia/2506/04 (Victoria) (influenza B virus)
[7] = target: hemagglutinin (HA) of influenza A/WF/HK/MPA892/06 (H4) (influenza A virus)
[8] = target: hemagglutinin (HA) of influenza A/California/07/09 (H1N1) (influenza A virus)
[9] = target: hemagglutinin (HA) of influenza B/Harbin/7/94 (Yamagata lineage) (influenza B virus B/Harbin/7/94)
[10] = target: hemagglutinin (HA) of influenza A/Vietnam/1194/04 (H5N1) (influenza A virus A/Vietnam/1194/04 (H5N1))
[11] = target: hemagglutinin (HA) of influenza A/New Caledonia/20/99 (H1N1) (influenza A virus A/New Caledonia/20/99 (H1N1))
[12] = target: hemagglutinin (HA) of influenza B/Brisbane/60/08 (Victoria lineage) (influenza B virus B/Brisbane/60/08)
[13] = target: hemagglutinin (HA) of influenza A/Brisbane/10/07 (H3N2) (influenza A virus A/Brisbane/10/07 (H3N2))
[14] = target: hemagglutinin (HA) of influenza virus B/Florida/04/06 (Yamagata) (influenza B virus)
[15] = target: hemagglutinin (HA) of influenza virus H3N2 A/Wisconsin/67/05 (influenza A virus)

B1: MD2632 (Fc fusion)
chain: EVQLVESGGGLVQPGGSLRLSCAVSISIFDIYAMDWYRQAPGKQRDLVATSFRDGSTNYADSVKGRFTISRDNAKNTLYLQMNSLKPEDTAVYLCHVSLYRDPLGVAGGMGVYWGKGALVTVSSGGGGSGGGGSEVQLVESGGGLVQPGGSLRLSCAVSISIFDIYAMDWYRQAPGKQRDLVATSFRDGSTNYADSVKGRFTISRDNAKNTLYLQMNSLKPEDTAVYLCHVSLYRDPLGVAGGMGVYWGKGALVTVSSGGGGSGGGGSEVQLVESGGGLVQAGGSLKLSCAASGRTYAMGWFRQAPGKEREFVAHINALGTRTYYSDSVKGRFTISRDNAKNTEYLEMNNLKPEDTAVYYCTAQGQWRAAPVAVAAEYEFWGQGTQVTVSS[gap - human IgG1 Fc]GGGGSGGGGSEVQLVESGGGLVQPGGSLRLSCAATGFTLENKAIGWFRQTPGSEREGVLCISKSGSWTYYTDSMRGRFTISRDNAENTVYLQMDSLKPEDTAVYYCATTTAGGGLCWDGTTFSRLASSWGQGTQVTVSSGGGGSGGGGSEVQLVESGGGLVQPGGSLKLSCAASGFTFSTSWMYWLRQAPGKGLEWVSVINTDGGTYYADSVKDRFTISRDNAKDTLYLQMSSLKSEDTAVYYCAKDWGGPEPTRGQGTQVTVSS
- Average neutralization titers [1]: 2 nM
- Average neutralization titers [2]: 4.7 nM
- Average neutralization titers [3]: 11.1 nM
- Average neutralization titers [4]: 1.2 nM
- Average neutralization titers [5]: 6.6 nM
- Average neutralization titers [6]: 4.7 nM
- Average neutralization titers [7]: 7 nM
- Average neutralization titers [8]: 1.5 nM

B2: MD2634 (Fc fusion)
chain: EVQLVESGGGLVQAGGSLKLSCAASGRTYAMGWFRQAPGKEREFVAHINALGTRTYYSDSVKGRFTISRDNAKNTEYLEMNNLKPEDTAVYYCTAQGQWRAAPVAVAAEYEFWGQGTQVTVSSGGGGSGGGGSEVQLVESGGGLVQPGGSLRLSCAVSISIFDIYAMDWYRQAPGKQRDLVATSFRDGSTNYADSVKGRFTISRDNAKNTLYLQMNSLKPEDTAVYLCHVSLYRDPLGVAGGMGVYWGKGALVTVSSGGGGSGGGGSEVQLVESGGGLVQPGGSLRLSCAVSISIFDIYAMDWYRQAPGKQRDLVATSFRDGSTNYADSVKGRFTISRDNAKNTLYLQMNSLKPEDTAVYLCHVSLYRDPLGVAGGMGVYWGKGALVTVSS[gap - human IgG1 Fc]GGGGSGGGGSEVQLVESGGGLVQPGGSLRLSCAATGFTLENKAIGWFRQTPGSEREGVLCISKSGSWTYYTDSMRGRFTISRDNAENTVYLQMDSLKPEDTAVYYCATTTAGGGLCWDGTTFSRLASSWGQGTQVTVSSGGGGSGGGGSEVQLVESGGGLVQPGGSLKLSCAASGFTFSTSWMYWLRQAPGKGLEWVSVINTDGGTYYADSVKDRFTISRDNAKDTLYLQMSSLKSEDTAVYYCAKDWGGPEPTRGQGTQVTVSS
- Average neutralization titers [1]: 1.4 nM
- Average neutralization titers [2]: 9.3 nM
- Average neutralization titers [3]: 22.2 nM
- Average neutralization titers [4]: 1.5 nM
- Average neutralization titers [5]: 7.9 nM
- Average neutralization titers [6]: 3.3 nM
- Average neutralization titers [7]: 2.5 nM
- Average neutralization titers [8]: 2.1 nM

B3: MD2643 (Fc fusion)
chain 1: EVQLVESGGGLVQPGGSLRLSCAVSISIFDIYAMDWYRQAPGKQRDLVATSFRDGSTNYADSVKGRFTISRDNAKNTLYLQMNSLKPEDTAVYLCHVSLYRDPLGVAGGMGVYWGKGALVTVSSGGGGSGGGGSEVQLVESGGGLVQPGGSLRLSCAVSISIFDIYAMDWYRQAPGKQRDLVATSFRDGSTNYADSVKGRFTISRDNAKNTLYLQMNSLKPEDTAVYLCHVSLYRDPLGVAGGMGVYWGKGALVTVSSGGGGSGGGGSEVQLVESGGGLVQAGGSLKLSCAASGRTYAMGWFRQAPGKEREFVAHINALGTRTYYSDSVKGRFTISRDNAKNTEYLEMNNLKPEDTAVYYCTAQGQWRAAPVAVAAEYEFWGQGTQVTVSS[gap - human IgG1 Fc with K409R (EU numbers)]
chain 2: EVQLVESGGGLVQPGGSLRLSCAATGFTLENKAIGWFRQTPGSEREGVLCISKSGSWTYYTDSMRGRFTISRDNAENTVYLQMDSLKPEDTAVYYCATTTAGGGLCWDGTTFSRLASSWGQGTQVTVSSGGGGSGGGGSEVQLVESGGGLVQPGGSLKLSCAASGFTFSTSWMYWLRQAPGKGLEWVSVINTDGGTYYADSVKDRFTISRDNAKDTLYLQMSSLKSEDTAVYYCAKDWGGPEPTRGQGTQVTVSS[gap - human IgG1 Fc with changes]
- Average neutralization titers [1]: 5.2 nM
- Average neutralization titers [2]: 7.4 nM
- Average neutralization titers [3]: 12.4 nM
- Average neutralization titers [4]: 2.8 nM
- Average neutralization titers [5]: 12.4 nM
- Average neutralization titers [6]: 12.4 nM
- Average neutralization titers [7]: 9.3 nM
- Average neutralization titers [8]: 2.8 nM

B4: MD2645 (Fc fusion)
chain 1: EVQLVESGGGLVQAGGSLKLSCAASGRTYAMGWFRQAPGKEREFVAHINALGTRTYYSDSVKGRFTISRDNAKNTEYLEMNNLKPEDTAVYYCTAQGQWRAAPVAVAAEYEFWGQGTQVTVSSGGGGSGGGGSEVQLVESGGGLVQPGGSLRLSCAVSISIFDIYAMDWYRQAPGKQRDLVATSFRDGSTNYADSVKGRFTISRDNAKNTLYLQMNSLKPEDTAVYLCHVSLYRDPLGVAGGMGVYWGKGALVTVSSGGGGSGGGGSEVQLVESGGGLVQPGGSLRLSCAVSISIFDIYAMDWYRQAPGKQRDLVATSFRDGSTNYADSVKGRFTISRDNAKNTLYLQMNSLKPEDTAVYLCHVSLYRDPLGVAGGMGVYWGKGALVTVSS[gap - human IgG1 Fc with K409R (EU numbers)]
chain 2: EVQLVESGGGLVQPGGSLRLSCAATGFTLENKAIGWFRQTPGSEREGVLCISKSGSWTYYTDSMRGRFTISRDNAENTVYLQMDSLKPEDTAVYYCATTTAGGGLCWDGTTFSRLASSWGQGTQVTVSSGGGGSGGGGSEVQLVESGGGLVQPGGSLKLSCAASGFTFSTSWMYWLRQAPGKGLEWVSVINTDGGTYYADSVKDRFTISRDNAKDTLYLQMSSLKSEDTAVYYCAKDWGGPEPTRGQGTQVTVSS[gap - human IgG1 Fc with changes]
- Average neutralization titers [1]: 3.7 nM
- Average neutralization titers [2]: 14.8 nM
- Average neutralization titers [3]: 29.6 nM
- Average neutralization titers [4]: 2.8 nM
- Average neutralization titers [5]: 14.8 nM
- Average neutralization titers [6]: 8.8 nM
- Average neutralization titers [7]: 2.8 nM
- Average neutralization titers [8]: 2.3 nM

B5: FM1B74.1 (Fc fusion)
chain 1: EVQLLESGGGLVQPGGSLRLSCAASGRTYAMGWFRQAPGKEREFVAAINALGTRTYYADSVKGRFTISRDNSKNTLYLQMNSLRAEDTAVYYCTAQGQWRAAPVAVAAEYEFWGQGTLVTVSSGGGGSGGGGSQVQLVESGGGVVQPGGSLRLSCAASISIFDIYAMDWYRQAPGKQRELVAVSFRDGSTYYADSVKGRFTISRDNSKNTLYLQMNSLRAEDTAVYYCHVSLYRDPLGVAGGIGVYWGQGTLVTVSS[gap - human IgG1 Fc with K409R (EU numbers)]
chain 2: EVQLLESGGGLVQPGGSLRLSCAASGFTLENKAIGWFRQAPGKEREGVLCISKSGSWTYYADSVKGRFTISRDNSKNTVYLQMNSLRPEDTAVYYCATTTAGGGLCWDGTTFSRLASSWGQGTLVTVSSGGGGSGGGGSEVQLVESGGGLVQPGGSLRLSCAASGFTFSTSWMYWLRQAPGKGLEWVSVINTDGGTYYADSVKGRFTISRDNSKNTLYLQMNSLRAEDTAVYYCAKDWGGPEPTRGQGTLVTVSS[gap - human IgG1 Fc with changes]
- Average neutralization titers [9]: 6 nM
- Average neutralization titers [10]: 101 nM
- Average neutralization titers [11]: 80 nM
- Average neutralization titers [12]: 6 nM
- Average neutralization titers [13]: 20 nM

B6: FM1B75.1 (Fc fusion)
chain 1: B5 chain 1
chain 2: EVQLVESGGGLVQPGGSLRLSCAISGLSLDTYAVGWFRQAPGKEREGVSCISSGHGMTYYADSVKGRFTISTDNSKNTVYLQMNSLRAEDTAVYYCATESRYYCSDNWPAPQRYIYWGQGTLVTVSSGGGGSGGGGSEVQLVESGGGLVQPGGSLRLSCAASGFTFSTSWMYWLRQAPGKGLEWVSVINTDGGTYYADSVKGRFTISRDNSKNTLYLQMNSLRAEDTAVYYCAKDWGGPEPTRGQGTLVTVSS[gap - human IgG1 Fc with changes]
- Average neutralization titers [9]: 5 nM
- Average neutralization titers [10]: 101 nM
- Average neutralization titers [11]: 80 nM
- Average neutralization titers [12]: 3 nM
- Average neutralization titers [13]: 16 nM

B7: MD2609 (Fc fusion)
chain: EVQLVESGGGLVQPGGSLKLSCAASGFTFSTSWMYWLRQAPGKGLEWVSVINTDGGTYYADSVKDRFTISRDNAKDTLYLQMSSLKSEDTAVYYCAKDWGGPEPTRGQGTQVTVSSAAA[gap - human IgG1 Fc]
- average neutralization titer [14]: 1.4 nM

B8: MD2626 (Fc fusion)
chain: EVQLVESGGGLVQPGGSLRLSCAVSISIFDIYAMDWYRQAPGKQRDLVATSFRDGSTNYADSVKGRFTISRDNAKNTLYLQMNSLKPEDTAVYLCHVSLYRDPLGVAGGMGVYWGKGALVTVSSAAA[gap - human IgG1 Fc]GGGGSGGGGSGGGGSGGGGSGGGGSGGGGSEVQLVESGGGLVQPGGSLRLSCAATGFTLENKAIGWFRQTPGSEREGVLCISKSGSWTYYTDSMRGRFTISRDNAENTVYLQMDSLKPEDTAVYYCATTTAGGGLCWDGTTFSRLASSWGQGTQVTVSS
- average neutralization titer [15]: 47.8 nM

Reference: patent US20190359693A1
